For 2 molecules, EC50 results are on record in patent US20170081387A1 (published 2017).

The assay has as its target recombinant human BAFF (human, UniProt Q9Y275 part only). In words: ELISA.
UniProt Q9Y275, sequence (Q9Y275 134-285): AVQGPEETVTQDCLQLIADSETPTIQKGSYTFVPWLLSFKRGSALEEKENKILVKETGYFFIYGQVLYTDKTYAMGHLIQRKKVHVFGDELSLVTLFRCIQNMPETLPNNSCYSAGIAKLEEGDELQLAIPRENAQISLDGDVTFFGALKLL

B1: fusion protein A (Fc fusion)
chain: LPAQVAFTPYAPEPGSTCRLREYYDQTAQMCCSKCSPGQHAKVFCTKTSDTVCDAMRSCPEEQYWDPLLGTCMSCKTICNHQSQRTCAAFCRSLSCRKEQGKFYDHLLRDCISCASICGQHPKQCAYFCENKLRSPVNLPPELR[human IgG1 Fc with D221Y (EU numbers) omitted here]
In the case of B1, the EC50 was determined as 155 pM.

B2: fusion protein B (Fc fusion)
chain: AMRSCPEEQYWDPLLGTCMSCKTICNHQSQRTCAAFCRSLSCRKEQGKFYDHLLRDCISCASICGQHPKQCAYFCENKLRSPVNLPPELR[human IgG1 Fc with D221Y (EU numbers) omitted here]
Turning to B2, the EC50 stood at 131 pM.
